Assay results from the supplement of paper PMC4166925.
± gives the standard deviation of the averaged measurements. In all, about 33,000 sequences were measured (“E-score (dimensionless, -0.5 to 0.5)”: median about -0.049, highest 2% from about 0.37 on). The list shows a part of the results.

System: T1, PmTbr T-box DNA-binding domain (GST fusion)
T1 sequence: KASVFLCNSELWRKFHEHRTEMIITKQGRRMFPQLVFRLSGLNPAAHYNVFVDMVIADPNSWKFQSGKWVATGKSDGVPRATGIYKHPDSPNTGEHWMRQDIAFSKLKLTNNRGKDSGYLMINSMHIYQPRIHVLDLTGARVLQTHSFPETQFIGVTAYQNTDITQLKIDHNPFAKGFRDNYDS
Assay: PBM E-score of 8-mer (E-score (dimensionless, -0.5 to 0.5)); Tbr is Tbrain of the sea star Patiria miniata (Pm) or the sea urchin Strongylocentrotus purpuratus (Sp); higher = stronger binding preference; most listed sequences are background and not binding sites
Conditions: the construct has about 5 more residues each side
Procedure, shortened: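 Primer extension turned Universal Agilent oligonucleotide arrays double-stranded. They were incubated with 200 nM protein in PBS (pH 7.5); the protein was a GST-fused Tbr T-box DNA-binding domain expressed in BL21 E. coli at 20 °C and purified on glutathione. Every ungapped 8-mer was scored from the scanned, quantified probe intensities, and the Universal PBM Analysis Suite gave each an enrichment E-score averaged over duplicate arrays.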

Sequence | PBM E-score of 8-mer
ACTTCAGA | -0.223 ± 0.039
TAGCGCCA | 0.34 ± 0.036
AGACGCCG | 0.0359 ± 0.034
TAGGGATA | -0.34 ± 0.0066
GAAGCCGA | -0.025 ± 0.014
GGCATCGA | 0.0321 ± 0.04
CGGCCCAC | -0.183 ± 0.077
CCCTCCGC | 0.026 ± 0.075
AATACACA | 0.077 ± 0.063
ATGTGGAA | 0.00298 ± 0.025
GGAATAAC | 0.0842 ± 0.011
CTGGTTAA | -0.115 ± 0.025
CCTCTTAG | -0.103 ± 0.0023
CTCGTACA | -0.195 ± 0.043
TAGTTTGA | -0.0649 ± 0.08
TATTCACA | 0.411 ± 0.029
GCTGGGCC | -0.225 ± 0.048
CGGGAATC | -0.0373 ± 0.064
CACTCGCG | 0.255 ± 0.03
GAGAAACC | 0.0802 ± 0.033
ACCTATGG | 0.157 ± 0.047
CTATCCCA | 0.0112 ± 0.092

Sequence | PBM E-score of 8-mer
AGACGAGG | -0.272 ± 0.011
CCTCCTTA | 0.121 ± 0.033
AGTAATTA | -0.0413 ± 0.014
ATAACGCC | 0.237 ± 0.023
ACTGTTCG | 0.0499 ± 0.045
ATCGCGTA | 0.109 ± 0.0099
AACTCTTC | -0.0978 ± 0.022
TAAACGTA | -0.0963 ± 0.003
ACGTGTGA | 0.4818 ± 0.0022
AACCGGTG | -0.0227 ± 0.049
GTCGATTA | -0.0359 ± 0.0087
TCACGTAA | -0.118 ± 0.023
CGGCCAAA | -0.076 ± 0.005
CACCGCTA | 0.166 ± 0.058
ATTGTTAA | 0.223 ± 0.0061
CTGTTAAG | 0.0153 ± 0.088
GCTTGACA | 0.237 ± 0.03
AACTGTGT | 0.191 ± 0.033
AGCAAGCA | 0.00822 ± 0.086
GCCCCCGC | -0.131 ± 0.036
ACGGCCAT | -0.105 ± 0.12
GACGCTGA | -0.201 ± 0.055

Sequence | PBM E-score of 8-mer
TCCATGAA | -0.174 ± 0.038
CGAGCAAC | 0.0217 ± 0.067
GGTTACCA | -0.0529 ± 0.0032
GTAGCGGA | -0.0618 ± 0.041
ATTGGCAA | 0.107 ± 0.041
CGTCGGGA | -0.179 ± 0.12
CTGGTCGC | 0.0232 ± 0.025
ACGCGGAT | 0.0103 ± 0.07
ATTTCCCG | -0.133 ± 0.0071
ATCACGCA | 0.167 ± 0.0099
AAAGCGCT | 0.0653 ± 0.07
TAGAGGAA | -0.273 ± 0.0069
AAAGGTCT | -0.225 ± 0.015
AGAGTGTA | 0.0538 ± 0.058
CCTGTTAA | 0.185 ± 0.023
ATAGAACA | 0.0787 ± 0.1
CGTCACTA | 0.2016 ± 0.00077
CCAATCAG | -0.0904 ± 0.015
AGCGGCAG | -0.0666 ± 0.088
ATGTACTA | -0.15 ± 0.027
CCGTGTTA | 0.24 ± 0.041
ACCTTTAG | 0.134 ± 0.032

Sequence | PBM E-score of 8-mer
ACTAAGGC | 0.00963 ± 0.088
TCAGAGCA | -0.152 ± 0.053
AAATTCCA | -0.0182 ± 0.023
GCACGGCA | -0.00238 ± 0.06
GGGAGGTA | -0.142 ± 0.042
ATATGATA | 0.118 ± 0.053
ACGCTGTG | -0.015 ± 0.023
ACAACAAC | 0.211 ± 0.014
ACTCAAAT | -0.125 ± 0.039
GACTTAAC | 0.108 ± 0.0043
AATTAATA | -0.105 ± 0.11
CGCTCCAG | -0.118 ± 0.011
GAGTGCGC | -0.0278 ± 0.044
ATAATATA | -0.0665 ± 0.069
ATCACGTG | 0.271 ± 0.045
AATCAAGC | 0.0954 ± 0.083
AGACACCC | 0.259 ± 0.023
CAACTTAC | 0.0379 ± 0.039
CTGGCCCA | -0.312 ± 0.078
AGCCGCTA | 0.0966 ± 0.0034
CATCAGGA | -0.311 ± 0.0035
CGCATGAC | -0.146 ± 0.044

Sequence | PBM E-score of 8-mer
TCGTGCAA | 0.057 ± 0.0072
CCGGCTTC | -0.132 ± 0.029
GAGGGTGC | 0.389 ± 0.018
AAGTTGAT | 0.159 ± 0.034
CATAATCA | -0.0127 ± 0.011
CCTCTCTC | 0.095 ± 0.0011
ACTGATGC | 0.00524 ± 0.022
AGTGTCTG | 0.218 ± 0.017
ACCCGGTC | -0.189 ± 0.0072
ACTTATTC | 0.123 ± 0.032
AAGCTTCG | -0.0415 ± 0.026
CGTGCGAC | 0.277 ± 0.018
TAGGACCA | -0.249 ± 0.011
CATCCAAA | -0.163 ± 0.034
AGTGGCAG | 0.166 ± 0.021
ATTATATG | -0.141 ± 0.042
GGTTCTCA | 0.0872 ± 0.085
CACTTCGG | 0.363 ± 0.015
CTCAATGA | -0.0821 ± 0.0073
CCCCGTAG | -0.122 ± 0.047
TAACATTA | -0.108 ± 0.022
